# Results published in the supplement of paper PMC3334620.
# Over roughly 33,000 sequences, “E-score (-0.5 to 0.5)” has its median near -0.032; the highest 2% begin near 0.36. The list shows a part of the results.
# Molecular target: T1, Sko1 (UniProt Q02100)
# T1 sequence: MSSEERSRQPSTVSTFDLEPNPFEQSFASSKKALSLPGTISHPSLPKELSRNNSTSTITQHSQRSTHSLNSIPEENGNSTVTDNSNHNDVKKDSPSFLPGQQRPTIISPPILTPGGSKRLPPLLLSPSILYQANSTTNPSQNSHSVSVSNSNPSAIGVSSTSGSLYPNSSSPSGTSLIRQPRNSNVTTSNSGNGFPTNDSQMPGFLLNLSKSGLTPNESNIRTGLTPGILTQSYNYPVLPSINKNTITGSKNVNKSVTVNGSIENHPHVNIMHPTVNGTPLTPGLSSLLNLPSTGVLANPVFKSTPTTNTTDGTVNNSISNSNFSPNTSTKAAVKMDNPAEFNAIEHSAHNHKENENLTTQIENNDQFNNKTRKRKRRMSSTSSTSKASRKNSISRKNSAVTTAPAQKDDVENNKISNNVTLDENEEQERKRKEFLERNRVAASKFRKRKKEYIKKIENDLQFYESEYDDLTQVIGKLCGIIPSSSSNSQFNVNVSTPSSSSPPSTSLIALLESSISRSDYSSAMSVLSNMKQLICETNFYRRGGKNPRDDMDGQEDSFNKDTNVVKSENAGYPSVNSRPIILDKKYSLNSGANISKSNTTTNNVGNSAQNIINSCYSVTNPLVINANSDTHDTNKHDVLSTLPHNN
# Assay: PBM E-score (8-mer binding enrichment) (E-score (-0.5 to 0.5)); higher = stronger / more preferred TF binding; most listed sequences are background and not binding sites
# Conditions: protein concentration: 200 nM; construct: GST-full length
# Procedure, shortened: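 E-scores (a modified Wilcoxon-Mann-Whitney statistic) were assigned by the Universal PBM Analysis Suite to every ungapped eight-base word pooled with its reverse complement. The input came from universal all-10-mer Agilent arrays made double-stranded by primer extension and probed with GST-tagged yeast transcription factors at about 100-200 nM. Fluorescent anti-GST detected bound protein, and masliner normalised the scans.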
row,Sequence,PBM E-score
1,CCGCCGTC,-0.0674
2,AACTCCTC,-0.269
3,GCGGCATA,0.0318
4,TACTTACA,0.093
5,TAATGAAA,0.24
6,AGGACATC,-0.0352
7,CAGGCGAG,-0.277
8,ATGGTGGG,-0.311
9,CGCGCAGA,0.152
10,TACGGTGA,0.0938
11,AGCGGGCC,-0.0425
12,CGCCCTCC,-0.262
13,GCCAGGGC,-0.337
14,AAGGACTA,-0.145
15,CTCTGCCC,-0.127
16,CTCAGCAG,-0.23
17,CGTTCACA,0.119
18,CCGAACAA,-0.153
19,AAGGTTGA,-0.00502
20,CACCAGGA,-0.114
21,AATCTAGT,0.0628
22,AGGGGGAA,-0.11
23,ACTTCTTC,-0.0455
24,TCAGAAAA,-0.094
25,CCCCTCTA,-0.189

row,Sequence,PBM E-score
1,CCTGCTGA,-0.0354
2,AAGGTCAC,-0.091
3,AACTACAG,-0.0409
4,GAGCAAGC,-0.124
5,CGTATTAC,0.387
6,GACCCTAA,-0.0869
7,GAGTTTAA,0.0584
8,CGCTTGAC,-0.0256
9,CTCTGAAC,-0.0539
10,CGGATGAC,0.315
11,ATTCAGGG,-0.0228
12,CGCATTGA,0.187
13,GGTGAAGA,-0.21
14,ACTAGCGG,-0.259
15,ATCGGACG,-0.0901
16,CAAGGAAA,-0.222
17,TAGAGTCA,-0.0742
18,ATGCTCCC,-0.163
19,GTTTTCCA,0.248
20,TATGTTAA,0.206
21,GGCCCTGA,-0.187
22,CGCGACTA,-0.0528
23,GACGAGAC,0.00066
24,CGCTCTAA,0.104
25,AATGTCAT,0.31

row,Sequence,PBM E-score
1,AAAAGACT,-0.257
2,ATACAGCA,0.121
3,TACTTGGA,0.23
4,CAGCCGGG,-0.162
5,GTGACGGA,0.174
6,CGCAGGAC,-0.0992
7,CATATATG,0.292
8,TAGGCTGA,-0.0934
9,TAGGGCCA,-0.202
10,AAAAGTTG,-0.0173
11,CAAACTCA,0.0745
12,ACCGTCAG,-0.0341
13,CGCCAATC,-0.0362
14,CCCACTCG,-0.339
15,ATTAGTTC,0.201
16,ACCTTTCC,-0.271
17,CGAGGGGC,-0.273
18,ACCTTTTG,-0.246
19,CTCCAGTC,-0.0948
20,AGTGAGGG,-0.23
21,CGGAAACG,0.0984
22,ACGGCATA,0.0529
23,ATCCACTC,-0.187
24,TCGAGCCA,-0.0914
25,AACAGTTG,0.0405

row,Sequence,PBM E-score
1,ATTAGCGC,0.076
2,ACCCGCCT,-0.125
3,AAACGTAG,0.393
4,AAGGACTC,-0.157
5,GCAATTAA,0.0783
6,AAGGAGAG,-0.225
7,CAAACATA,-0.0407
8,ATGTTCGG,-0.225
9,ACGTGATC,0.432
10,CTATACTA,0.047
11,AGACCAAA,-0.0522
12,CTTCGTAC,0.0189
13,ACCTAACT,0.0945
14,AGGTGAAC,0.0479
15,GATGTGGA,0.0944
16,GAATCCGA,-0.0433
17,CTACAAAC,-0.037
18,CCTCAACG,-0.108
19,GACCCCCA,-0.416
20,ATCATTCC,0.0521
21,CAGCATTA,0.0417
22,AAGCACAA,0.0339
23,CTAGCCAG,-0.193
24,AATCTCGC,0.16
25,AACTTTTG,0.117

row,Sequence,PBM E-score
1,GGCTATAC,-0.155
2,AAAGCTAA,0.122
3,GGACCTGA,-0.26
4,ATGCAGGG,-0.292
5,AGGTCCGC,-0.377
6,CGATCGCA,0.11
7,CGCTGGGC,-0.255
8,ACAAATAA,0.211
9,CCACTCGC,-0.25
10,TACGCACA,0.401
11,CAGTCGGG,0.0527
12,ATCCGTTA,0.271
13,AGTAATCA,0.0126
14,AGGATGCA,-0.106
15,ACGTCCTA,0.317
16,GAACGCAC,0.202
17,CAAAGACA,0.0981
18,TATTCGGA,-0.0522
19,CGACCGAC,-0.012
20,TGGGCGAA,-0.1
21,GAACCGGA,-0.0591
22,ATATCCGG,-0.121
23,CCTGGTTA,-0.0989
24,ACAAATTG,0.0263
25,TCTCAGCA,-0.155

row,Sequence,PBM E-score
1,GTACGCGA,0.277
2,GCTATCAC,0.0252
3,TGGCCACA,-0.0976
4,ACGCACTC,0.285
5,AGTAGCAT,-0.0244
6,AAACTTGA,0.114
7,AAGACTCA,-0.102
8,AGTTGCAA,0.219
9,GCCCCCCA,-0.462
10,ATGCTGCA,-0.168
11,ACTTTTCT,-0.022
12,GCTACAGC,-0.212
13,ACTGCCGA,-0.181
14,CACACAAC,0.068
15,AAACAGTT,0.172
16,GATTGGCC,-0.172
17,TAACTAGA,0.187
18,AATAATGG,0.147
19,CAATCACG,0.278
20,TGTAAGAA,0.208
21,ATAAACAG,0.122
22,CGGTTATC,-0.0912
23,GGTAGATA,0.0735
24,AACCCGCT,-0.326
25,ACTGAATA,0.0581

row,Sequence,PBM E-score
1,TCCGGCAA,-0.0876
2,CGAGGTAA,-0.107
3,CTTAGGTA,0.139
4,AACGACTA,0.214
5,AGAGACCA,-0.0799
6,ATGATACA,0.222
7,AAATACTT,0.168
8,GGCGTAAC,0.0903
9,ACATACGC,0.28
10,CTATGGGA,-0.134
11,AAGTGCCC,-0.316
12,ACCTTTCA,-0.108
13,GACGATCC,-0.0861
14,ACGCGGCG,0.096
15,GTCCTAGA,0.0451
16,AAACCATG,-0.0853
17,AGAACAGC,-0.0778
18,ATCATAGC,0.269
19,GAACTACC,-0.0763
20,CTGCTGAC,0.0145
21,CTAATCTA,0.0405
22,GAACACGC,0.0523
